# Measurements as given in patent publication US5633345A, “Cyclic peptides” (priority 1992, dated 1997).
# Part of at least one peptide drawing is inferred or uncertain, most often the ends. Some entries share one result that the patent states for a list of compounds. Starred links: 1 amine or outer side, 2 acyl side, 3 side chain; linkers in the order of their positions; H or OH if unused. Non-standard residues stand in square brackets, D forms with d. Residues, ends and D or L forms follow the SMILES beside them. *: point of attachment. X1 = CC[C@@H](C)[C@@H](O[*:1])C(=O)[*:2]; X3 = CN([C@@H](C(=O)[*:2])C(C)(C)O)[*:1]; Hmp(2R,3S) = CC[C@H](C)[C@@H](O)C(=O)O; NMeVal(β-OH) = CN[C@H](C(=O)O)C(C)(C)O; NMeaIle = CC[C@@H](C)[C@H](NC)C(=O)O; NMeF = CN[C@@H](Cc1ccccc1)C(=O)O; aIle = CC[C@@H](C)[C@H](N)C(=O)O; Nva(5-OH) = N[C@@H](CCCO)C(=O)O; NMeL = CN[C@@H](CC(C)C)C(=O)O; NMeV = CN[C@H](C(=O)O)C(C)C; Hiv = CC(C)[C@H](O)C(=O)O; X2 = CCCCO*
# Experiments:
# [1] = test system: C. albicans TIMM 0171; assay: Antifungal activity, MIC by agar dilution method; format: cell-based, Candida albicans; conditions: Sabouraud-dextrose agar medium, 30° C. for 2 days
# Experimental: (§1) The minimum inhibitory concentration (MIC) values were determined after incubation at 30° C. for 2 days.
# [2] = test system: C. grabrata TIMM 1062; assay: Antifungal activity, MIC by agar dilution method; format: cell-based; conditions: Sabouraud-dextrose agar medium, 30° C. for 2 days
# Experimental: as §1
# [3] = test system: C. kefyr TIMM 0301; assay: Antifungal activity, MIC by agar dilution method; format: cell-based; conditions: Sabouraud-dextrose agar medium, 30° C. for 2 days
# Experimental: as §1
# [4] = test system: Candida albicans TIMM 0136; assay: Antifungal activity, MIC by agar dilution method; format: cell-based; conditions: Sabouraud-dextrose agar medium, 30° C. for 2 days
# Experimental: as §1
# [5] = test system: Cryptococcus neoformans TIMM 0354; assay: Antifungal activity, MIC by agar dilution method; format: cell-based; conditions: Sabouraud-dextrose agar medium, 30° C. for 2 days
# Experimental: as §1
# [6] = test system: pathogenic fungi; assay: Antifungal activity, overall statements in text; format: cell-based; conditions: overall statement, agar dilution method
# [7] = mice, intraperitoneally, 100 mg/kg
structure (smiles),measurement,setting,value
"CC[C@@H](C)[C@@H]1NC(=O)[C@@H]2CCCN2C(=O)[C@H](Cc2ccccc2)N(C)C(=O)[C@H](Cc2ccccc2)NC(=O)[C@H](C(C)C)N(C)C(=O)[C@@H]([C@@H](C)CC)OC(=O)[C@H](C(C)(C)O)N(C)C(=O)[C@H](CC(C)C)NC(=O)[C@H](C(C)C)N(C)C1=O [Compound 18, cyclo(L-aIle-L-MeVal-L-Leu-L-βHOMeVal-(2R,3s)-Hmp-L-MeVal-L-Phe-L-MePhe-L-Pro)] (cyclo(F[NMeF]P[aIle][NMeV]L[NMeVal(β-OH)][Hmp(2R,3S)][NMeV]))",MIC,[1],0.012 µg/mL
same,MIC,[2],0.20 µg/mL
same,MIC,[3],0.39 µg/mL
same,MIC,[4],0.012 µg/mL
same,MIC,[5],1.56 µg/mL
same,antifungal activity (in words),[6],high activity
same,toxicity signs,[7],no toxicity signs
"CC[C@@H](C)[C@H]1OC(=O)[C@H](C(C)(C)O)N(C)C(=O)[C@H](CC(C)C)NC(=O)[C@H](C(C)C)N(C)C(=O)[C@H](CCCO)NC(=O)[C@@H]2CCCN2C(=O)[C@H](Cc2ccccc2)N(C)C(=O)[C@H](Cc2ccccc2)NC(=O)[C@H](C(C)C)N(C)C1=O [Compound 36, cyclo(L-HONva-L-MeVal-L-Leu-L-βHOMeVal-D-Hmp-L-MeVal-L-Phe-L-MePhe-L- Pro)] (cyclo(F[NMeF]P[Nva(5-OH)][NMeV]L[NMeVal(β-OH)][X1][NMeV]))",MIC,[1],3.12 µg/mL
same,MIC,[2],> 25 µg/mL
same,MIC,[3],6.25 µg/mL
same,MIC,[4],6.25 µg/mL
same,MIC,[5],> 25 µg/mL
same,toxicity signs,[7],no toxicity signs
"CC[C@@H](C)[C@@H]1NC(=O)[C@@H]2CCCN2C(=O)[C@H](Cc2ccccc2)N(C)C(=O)[C@H](Cc2ccccc2)NC(=O)[C@H](C(C)C)N(C)C(=O)[C@@H]([C@H](C)CC)OC(=O)[C@H](C(C)(C)O)N(C)C(=O)[C@H](CC(C)C)NC(=O)[C@H](CC(C)C)N(C)C1=O [Compound 23, cyclo(L-aIle-L-MeLeu-L-Leu-L-βHOMeVal-D-Hmp-L-MeVal-L-Phe-L-MePhe-L-Pro)] (cyclo(F[NMeF]P[aIle][NMeL]L[NMeVal(β-OH)][X1][NMeV]))",antifungal activity (in words),[6],active as much as compound 1
"CC[C@@H](C)[C@@H]1NC(=O)[C@@H]2CCCN2C(=O)[C@H](Cc2ccccc2)N(C)C(=O)[C@H](Cc2ccccc2)NC(=O)[C@H](C(C)C)N(C)C(=O)[C@@H]([C@H](C)CC)OC(=O)[C@H](C(C)(C)O)N(C)C(=O)[C@H](CC(C)C)NC(=O)[C@H]([C@H](C)CC)N(C)C1=O [Compound 22, cyclo (L-aIle-L-MeaIle-L-Leu-L-βHOMeVal-D-Hmp-L-MeVal-L-Phe-L-MePhe-L-Pro)] (cyclo(F[NMeF]P[aIle][NMeaIle]L[NMeVal(β-OH)][X1][NMeV]))",antifungal activity (in words),[6],active as much as compound 1
"CC[C@@H](C)[C@@H]1NC(=O)[C@@H]2CCCN2C(=O)[C@H](Cc2ccccc2)N(C)C(=O)[C@H](Cc2ccccc2)NC(=O)[C@H](C(C)C)N(C)C(=O)[C@@H]([C@H](C)CC)OC(=O)[C@H](C(C)(C)O)N(C)C(=O)[C@H](CC(C)C)NC(=O)[C@H](C(C)C)N(C)C1=O [Compound 1, cyclo(L-aIle-L-MeVal-L-Leu-L-βHOMeVal-D-Hmp-L-MeVal-L-Phe-L-MePhe-L-Pro)] (cyclo(F[NMeF]P[aIle][NMeV]L[NMeVal(β-OH)][X1][NMeV]))",MIC,[1],0.025 µg/mL
same,MIC,[2],0.20 µg/mL
same,MIC,[3],0.39 µg/mL
same,MIC,[4],0.025 µg/mL
same,MIC,[5],0.78 µg/mL
same,toxicity signs,[7],no toxicity signs
"CC[C@@H](C)[C@@H]1NC(=O)[C@H]2CCCN2C(=O)[C@H](Cc2ccccc2)N(C)C(=O)[C@H](Cc2ccccc2)NC(=O)[C@H](C(C)C)N(C)C(=O)[C@@H]([C@H](C)CC)OC(=O)[C@H](C(C)(C)O)N(C)C(=O)[C@H](CC(C)C)NC(=O)[C@H](C(C)C)N(C)C1=O [Compound 21, cyclo(L-aIle-L-MeVal-L-Leu-L-βHOMeVal-D-Hmp-L-MeVal-L-Phe-L-MePhe-D-Pro)] (cyclo(F[NMeF][dP][aIle][NMeV]L[NMeVal(β-OH)][X1][NMeV]))",MIC,[1],0.39 µg/mL
same,MIC,[2],1.56 µg/mL
same,MIC,[3],0.78 µg/mL
same,MIC,[4],0.10 µg/mL
same,MIC,[5],1.56 µg/mL
same,toxicity signs,[7],no toxicity signs
"CC[C@@H](C)[C@@H]1NC(=O)[C@@H]2CCCN2C(=O)[C@H](Cc2ccccc2)N(C)C(=O)[C@H](Cc2ccccc2)NC(=O)[C@H](C(C)C)N(C)C(=O)[C@@H]([C@H](C)CC)OC(=O)[C@H](C(C)(C)O)N(C)C(=O)[C@H](CC(C)C)NC(=O)[C@H](C(C)C)OC1=O [Compound 29, cyclo(L-aIle-L-Hmb-L-Leu-L-βHOMeVal-D-Hmp-L-MeVal-L-Phe-L-MePhe-L-Pro)] (cyclo(F[NMeF]P[aIle][Hiv]L[NMeVal(β-OH)][X1][NMeV]))",MIC,[1],0.39 µg/mL
same,MIC,[2],1.56 µg/mL
same,MIC,[3],0.39 µg/mL
same,MIC,[4],0.39 µg/mL
same,MIC,[5],> 25 µg/mL
same,toxicity signs,[7],no toxicity signs
"CC[C@@H](C)[C@@H]1NC(=O)[C@@H]2CCCN2C(=O)[C@H](Cc2ccccc2)N(C)C(=O)[C@H](Cc2ccccc2)NC(=O)[C@H](C(C)C)N(C)C(=O)[C@@H]([C@H](C)CC)OC(=O)[C@@H](C(C)(C)O)N(C)C(=O)[C@H](CC(C)C)NC(=O)[C@H](C(C)C)N(C)C1=O [Compound 20, cyclo(L-aIle-L-MeVal-L-Leu-D-βHOMeVal-D-Hmp-L-MeVal-L-Phe-L-MePhe-L-Pro)] (cyclo(F[NMeF]P[aIle][NMeV]L[X3][X1][NMeV]))",MIC,[1],0.39 µg/mL
same,MIC,[2],1.56 µg/mL
same,MIC,[3],> 25 µg/mL
same,MIC,[4],0.39 µg/mL
same,MIC,[5],> 25 µg/mL
same,toxicity signs,[7],no toxicity signs
"CC[C@@H](C)[C@@H]1NC(=O)[C@@H]2CCCN2C(=O)[C@H](Cc2ccccc2)N(C)C(=O)[C@H](Cc2ccccc2)NC(=O)[C@H](C(C)C)N(C)C(=O)[C@@H]([C@H](C)CC)OC(=O)[C@H](C(C)(C)O)N(C)C(=O)[C@H]([C@H](C)CC)NC(=O)[C@H](C(C)C)N(C)C1=O [Compound 24, cyclo(L-aIle-L-MeVal-L-aIle-L-βHOMeVal-D-Hmp-L-MeVal-L-Phe-L-MePhe-L- Pro)] (cyclo(F[NMeF]P[aIle][NMeV][aIle][NMeVal(β-OH)][X1][NMeV]))",antifungal activity (in words),[6],more active than compound 1
"CCCCOC(=O)CC[C@@H]1NC(=O)[C@@H]2CCCN2C(=O)[C@H](Cc2ccccc2)N(C)C(=O)[C@H](Cc2ccccc2)NC(=O)[C@H](C(C)C)N(C)C(=O)[C@@H]([C@H](C)CC)OC(=O)[C@H](C(C)(C)O)N(C)C(=O)[C@H](CC(C)C)NC(=O)[C@H](C(C)C)N(C)C1=O [Compound 30, cyclo(L-GluOR-L-MeVal-L-Leu-L-βHOMeVal-D-Hmp-L-MeVal-L-Phe-L-MePhe-L- Pro) (R: n-butyl)] (cyclo(E(X2)[NMeV]L[NMeVal(β-OH)][X1][NMeV]F[NMeF]P))",MIC,[1],0.39 µg/mL
same,MIC,[2],3.12 µg/mL
same,MIC,[3],1.56 µg/mL
same,MIC,[4],0.39 µg/mL
same,MIC,[5],> 25 µg/mL
same,toxicity signs,[7],no toxicity signs
"CC[C@@H](C)[C@@H]1NC(=O)[C@@H]2CCCN2C(=O)[C@H](Cc2ccccc2)N(C)C(=O)[C@H](Cc2ccccc2)NC(=O)[C@H](C(C)C)N(C)C(=O)[C@@H]([C@H](C)CC)OC(=O)[C@H]([C@@H](C)O)N(C)C(=O)[C@H](CC(C)C)NC(=O)[C@H](C(C)C)N(C)C1=O [Compound 19, Cyclo(L-aIle-L-MeVal-L-Leu-L-MeThr-D-Hmp-L-MeVal-L-Phe-L-MePhe-L-Pro)] (HELM PEPTIDE1{F.[meF].P.[CC[C@@H](C)[C@H](N[*:1])C(=O)[*:2]].[meV].L.[meT].[CC[C@@H](C)[C@@H](O[*:1])C(=O)[*:2]].[meV]}$PEPTIDE1,PEPTIDE1,1:R1-9:R2$$$V2.0)",antifungal activity (in words),[6],high antifungal activity
